Our source for the switch fluorescence ratio values is the supplement of paper PMC10126150.

Values marked as one replicate rest on one cluster of the flow cell; about a third of the high ones do not repeat.

The series has as its system ATP. As to the kind of experiment: switch fluorescence ratio, 500 uM ATP over buffer (Cy3 cluster intensity, sum of 5 cycles each) (fold (ratio)); higher = stronger signal-on switching upon ATP binding; sequences stand for … in TCGTCGGCAGCGTCAGATGTGTATAAGAGACAGTTTTTTTTTTTTTTTTTTTTTTTTT…TC. To be noted: aptamer strand: ATP DNA aptamer (quencher-CACCTGGGGGAGTATTGCGGAGGAAGG + anchor), 100 nM annealed; ATP concentration: 500 uM; one replicate. The method, boiled down:
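Cy3-labelled switching-strand clusters on a modified Illumina MiSeq flow-cell were annealed to 100 nM quencher-labelled ATP aptamer, imaged in selection buffer, then imaged after 15 min with 500 uM ATP at 22 °C. Five buffer/ATP cycles ran, with NaOH stripping and re-annealing between them. The fluorescence ratio is summed target-cycle over summed buffer-cycle Cy3 intensity per cluster, averaged per switch-domain sequence. Clusters outside 100-1000 RFU were excluded.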
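Note: ATP exposure 15 min at 22 °C before imaging.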

On to CACGGGAGGG, for which the switch fluorescence ratio was found to be 1.04.

As for GCTGCTGGGA, the switch fluorescence ratio was determined as 1.01.

Take CTGCGCCATA: the switch fluorescence ratio was determined as 1.65.

In the case of TATATACAGA, the switch fluorescence ratio worked out at 1.

For ACCTCGAGGT, the switch fluorescence ratio is 0.965.

Regarding AGACGTAGCC, the switch fluorescence ratio came to 1.03.

Turning to GCCGTTCGTC, the switch fluorescence ratio was 1.02.

As to TTCGGGGTCA, the switch fluorescence ratio amounted to 0.976.

As to GACTTGTGCT, the switch fluorescence ratio amounted to 0.933.

AGGATGTTAG: the switch fluorescence ratio was determined as 1.

For AAACAGGATG, the switch fluorescence ratio is 1.02.

On to CGCGGTTTTT, for which the switch fluorescence ratio was 0.997.

Turning to GGTGATTGGC, the switch fluorescence ratio was 1.08.

On to ATACCAGTCT, for which the switch fluorescence ratio is 1.05.

As for GGGTCGAATC, the switch fluorescence ratio was 1.

Consider GATTCGGACT, for which the switch fluorescence ratio came to 0.987.

On to TATGAAATGA, for which the switch fluorescence ratio came out at 0.961.

Take TCATCTTTTA: the switch fluorescence ratio turned out to be 1.04.

As for TAACGGATGC, the switch fluorescence ratio was determined as 0.975.

In the case of ACTGCTAGCG, the switch fluorescence ratio was 1.01.

As to TATGGGACTG, the switch fluorescence ratio came out at 1.01.

CCCATCGGGC: the switch fluorescence ratio is 1.01.

Turning to GGATGCGGTC, the switch fluorescence ratio stood at 0.985.

GTGCAGAGCC: the switch fluorescence ratio stood at 0.968.

For the sequence TATTGTGGTG, the switch fluorescence ratio was 0.988.

With CGGAATTCGG, the switch fluorescence ratio was determined as 1.05.

Consider TTACGGGGGC, for which the switch fluorescence ratio stood at 1.01.

On to TACCCACACA, for which the switch fluorescence ratio amounted to 1.39.

For TCAATAATG, the switch fluorescence ratio came out at 1.14.

For ACTGGGAAGC, the switch fluorescence ratio came out at 1.03.

In the case of TGGGACGATT, the switch fluorescence ratio worked out at 0.96.

Take ACCAATTGTA: the switch fluorescence ratio turned out to be 1.01.

Consider TACCTCGGGT, for which the switch fluorescence ratio was 1.04.

On to CGTGTCTATA, for which the switch fluorescence ratio came to 1.05.

Take ACGACCAGT: the switch fluorescence ratio came to 1.03.

In the case of ATTCTATGGA, the switch fluorescence ratio worked out at 1.03.

On to CGGTGAAACT, for which the switch fluorescence ratio was 1.

For the sequence TTACAAAGGT, the switch fluorescence ratio came out at 0.986.

Turning to GACATTTCTG, the switch fluorescence ratio worked out at 1.09.

For TAATTGAAGT, the switch fluorescence ratio came to 0.955.

For the sequence CTCCTCCCAT, the switch fluorescence ratio is 3.5.

Take CGGTAGCTTT: the switch fluorescence ratio came out at 1.12.

With TTAGCTGTGA, the switch fluorescence ratio turned out to be 1.02.

Take AGATGTTGAT: the switch fluorescence ratio is 0.962.

With ACCCCTTGTT, the switch fluorescence ratio came out at 1.06.

On to TGTCTTATGG, for which the switch fluorescence ratio turned out to be 1.01.

For GGATGAGGCT, the switch fluorescence ratio turned out to be 0.972.

As to GAAAATGTCA, the switch fluorescence ratio stood at 1.04.

As to CAATGCGC, the switch fluorescence ratio was 0.988.

For the sequence AGGCAGACGG, the switch fluorescence ratio turned out to be 1.02.

CGAGTGCAAG: the switch fluorescence ratio was 1.01.

Turning to GCCTGCCGGT, the switch fluorescence ratio stood at 1.

Consider CATAGGTGCA, for which the switch fluorescence ratio stood at 1.06.

CAGTGTGTTA: the switch fluorescence ratio is 1.01.

On to GCTTATGGTG, for which the switch fluorescence ratio was 0.987.

For the sequence TTGCATGCAC, the switch fluorescence ratio turned out to be 0.985.

For GATTGATGAC, the switch fluorescence ratio came to 1.02.

Turning to TTAGGATTGA, the switch fluorescence ratio came out at 1.04.

For the sequence CTCGCGGTGT, the switch fluorescence ratio was 1.07.

In the case of AAAAATTTAT, the switch fluorescence ratio was 1.

For GAGGCCACGT, the switch fluorescence ratio amounted to 0.986.

GAAGATTGGA: the switch fluorescence ratio was 1.01.

As to CCTCAATAGT, the switch fluorescence ratio was 3.16.

As for GAGAGATATG, the switch fluorescence ratio came to 1.01.

With CTGTTGCGTG, the switch fluorescence ratio came out at 1.

Take TCAATAGGTG: the switch fluorescence ratio worked out at 1.3.

In the case of GAATTGGAGG, the switch fluorescence ratio came to 0.996.

For the sequence TTTGTTGTC, the switch fluorescence ratio is 0.941.

Regarding CGAGGAGCAC, the switch fluorescence ratio is 1.06.

For the sequence TGTAAAACCT, the switch fluorescence ratio amounted to 1.09.

As for GGTCTCATAT, the switch fluorescence ratio is 0.994.

ACCGCTCCAG: the switch fluorescence ratio came out at 1.27.

Regarding AGACTCCGTA, the switch fluorescence ratio was 1.08.

Turning to AGGGGTGGG, the switch fluorescence ratio was found to be 0.996.

Take CGGTAACGGC: the switch fluorescence ratio was 0.976.

As to GCAACCCACT, the switch fluorescence ratio came out at 1.34.

Consider AGTGCCACTG, for which the switch fluorescence ratio worked out at 1.02.

As for ATTAGGGTGT, the switch fluorescence ratio stood at 1.05.

As for ACGTCGACGG, the switch fluorescence ratio stood at 0.997.
